Out of some 46,000 compounds screened, about 60 (0.1%) were called active. Another 3% or so got no clear call; they are omitted. Calls follow the shape of the dose curve; as a rule, active = well fitted inhibition curve with a large enough effect; inconclusive = small, poorly fitted or top-dose-only effect; inactive = no such curve, though single readings can be large or run the other way. This is one part of the list.
Test: Primary qHTS assay for Inhibitors of ovarian cancer metastasis using an organotypic tumor microenvironment (TME) model. Also: nearly all actives have a fitted effect of over 65% in size.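 As to activity change, negative = inhibition: plate controls were DMSO wells for no effect and tomatine positive control wells for full effect.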
Conditions: SKOV3ip1-GFP adhesion/invasion on 3D omental model, fluorescence; series mostly up to 45.8 µM; activity change, negative = inhibition: at the top concentration
Summary of the method: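 A 3D layer of primary human omental fibroblasts, mesothelial cells, fibronectin and collagen I, grown 48 hr, received SKOV3ip1-GFP cells in serum-free medium plus compounds at 0.36-46 umol/L. After 2 hr RT and 16 hr 37 C, fixed adherent GFP cells were counted; normalized to DMSO and tomatine.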

| Compound | activity change, negative = inhibition | outcome |
| --- | --- | --- |
| Cn1nc(C(=O)Nc2ccccc2C#N)c2c1-c1ccccc1SC2 | inactive: 5.97% |  |
| Cc1ccc(NC(=O)CN2C(=O)C(C)(C)c3cc(S(=O)(=O)N4CCCCC4)ccc32)c(Br)c1 | inactive: 8.61% |  |
| COc1cccc(-c2cc(C(=O)Nc3cccnc3Cl)no2)c1 | inactive: -0.4% |  |
| CCOc1cccc(C2c3c(oc4cc(C)c(C)cc4c3=O)C(=O)N2c2nc(C)c(C)s2)c1 (stereo not given) | inactive: 4.69% |  |
| O=C(NC1CC(=O)N(c2ccc(Cl)cc2)C1)C1CCCCC1 (stereo not given) | inactive: 8.1% |  |
| CCOc1ccc(NC(=O)CSc2nc3ccccc3c(=O)n2CCC(=O)NC2CCCCC2)cc1 | inactive: 0.987% |  |
| COc1ccc(NC(=O)CN(C)S(=O)(=O)c2cnc[nH]2)cc1 | inactive: 6.83% |  |
| COc1cc(C(=O)NCCSc2c(C)[nH]c3ccccc23)cc(OC)c1OC | inactive: -9.05% |  |
| O=C(COC(=O)c1cc(-c2cccs2)nc2ccccc12)c1ccc(Cl)cc1 | inactive: 0.232% |  |
| CCOc1ccc(Nc2oc(/C=C/c3cc(OC)c(OC)c(OC)c3)nc2C#N)cc1 |  | inactive |
| COc1ccc(CCNC(=O)CSc2cn(CCNC(=O)c3ccc(OC)c(OC)c3)c3ccccc23)cc1OC |  | inactive |
| O=C(O)CSc1nc2ccccc2nc1N1CCCCC1 |  | inactive |
| CCc1ccccc1NC(=O)[C@H](Cc1ccccc1)N1Cc2ccccc2C1=O | inactive: 8% |  |
| COC(=O)c1c(NC(=O)/C(C#N)=C/c2ccc(OC)cc2)sc2c1C(C(=O)OC)CC2 (stereo not given) | inactive: 0.342% |  |
| COc1ccc(-c2noc(C3CC(=O)N(c4ccc5c(c4)OCCO5)C3)n2)c(OC)c1 (stereo not given) | inactive: -2.38% |  |
| COc1cccc(NS(=O)(=O)c2cc(-c3cnc(C4CC4)o3)ccc2C)c1 |  | inactive |
| Cc1ccc2c(=O)cc(C(=O)Nc3ccc(S(=O)(=O)N4CCCC(C)C4)cc3)oc2c1C (stereo not given) |  | inactive |
| CC(=O)c1cc2c(cc1N/C(=N/S(=O)(=O)c1ccc(C)cc1)c1ccc(Cl)cc1)OCO2 | inactive: -27.9% |  |
| CCOc1ccc(NC(=O)c2oc3ccccc3c2NC(=O)C(C)Oc2ccccc2)cc1 (stereo not given) | inactive: -12.6% |  |
| CC(C)Cn1c(SCc2cccc(F)c2)nc2ccsc2c1=O | inactive: -9.56% |  |

| Compound | activity change, negative = inhibition | outcome |
| --- | --- | --- |
| Cc1ccc(C)c(CN2C(=O)c3ccccc3S(=O)(=O)c3ccc(C(=O)N4CCN(Cc5ccccc5)CC4)cc32)c1 | inactive: 3.58% |  |
| Cc1cccc(C)c1NC(=O)CSc1nccn1C | inactive: 0.146% |  |
| CC(NC(=O)c1c(O)nc2ccccn2c1=O)c1ccccc1 (stereo not given) | inactive: -14.2% |  |
| CCOc1ccccc1N1CC(c2nc3ccccc3n2CCCCOc2ccccc2)CC1=O (stereo not given) | inactive: -10.7% |  |
| COc1ccc(C2c3cc(OC)c(OC)cc3CC(=O)N2c2cccc(C#N)c2)cc1 (stereo not given) |  | inactive |
| CCOCCCn1c(SCC(=O)Nc2ccccc2OC)nc2c(oc3ccccc32)c1=O | inactive: 44.3% |  |
| Cc1ccc(C)c(C(=O)N2CCC(c3nc4c(nnn4Cc4ccccc4)c(=O)[nH]3)CC2)c1 |  | inactive |
| COc1ccccc1C1=Nn2c(nc3sc(C(=O)Nc4ccccc4Cl)c(C)c3c2=O)SC1 | inactive: 4.48% |  |
| CC1Cc2cc(S(=O)(=O)CCC(=O)Nc3ccc(OC(F)(F)F)cc3)ccc2N1C(=O)C1CC1 (stereo not given) |  | inactive |
| CCN(C(=O)CCS(=O)(=O)c1cc(Br)cc2c1N(C(=O)C1CC1)CC2)c1cccc(C)c1 | inactive: 14.5% |  |
| COc1ccc(Cc2nc3ccc(C(=O)NCCc4ccc(Cl)cc4)cc3o2)cc1 |  | inactive |
| COc1ccc(OC)c(C2CC(=O)Nc3ccc4ccccc4c32)c1 (stereo not given) |  | inactive |
| COc1ccc(-c2cn3c(n2)sc2cc(C(=O)NCc4ccccc4)ccc23)cc1 | inactive: 6.73% |  |
| Cc1c(C(=O)N(C)C)sc2c1c(=O)n(-c1ccc(F)cc1)c(=O)n2Cc1cc(=O)n2ccccc2n1 | inactive: 1.92% |  |
| CCOC(=O)C1CCN(C(=O)c2ccc3c(c2)sc2nc(-c4ccccc4)cn23)CC1 |  | inactive |
| COc1cccc(CNC(=O)C2Cc3cc(S(=O)(=O)N4CCCCCC4)ccc3N2C(C)=O)c1 (stereo not given) | inactive: 9.02% |  |
| COc1ccc(CC(=O)NCc2ccc3c(c2)CCN3C(C)=O)cc1OC | inactive: -1.48% |  |
| CCN(CC)S(=O)(=O)c1ccc2c(c1)c(=O)c(C(=O)NCc1ccc(Cl)cc1)cn2C | inactive: 9.88% |  |
| CCc1cc2c(cc3c(=O)n(CC(=O)N4CCC(C)CC4)nc(CC)n32)s1 | inactive: -9.55% |  |
| Cn1nc(C(=O)N2CCN(c3cccc(Cl)c3)CC2)c2c1-c1ccccc1S(=O)(=O)C2 | inactive: 2.57% |  |

| Compound | activity change, negative = inhibition | outcome |
| --- | --- | --- |
| Cc1nc2c(-c3ccccc3)c(C)nn2c(C)c1CCC(=O)N1CCN(c2ccccc2)CC1 | inactive: 4.35% |  |
| CCC(=O)N1CCc2cc(Br)cc(S(=O)(=O)N3CCCC(C(=O)NCc4cccc(OC)c4)C3)c21 (stereo not given) | inactive: 11% |  |
| CC(=O)N1CCCc2ccc(NS(=O)(=O)c3ccc(C)c(C)c3)cc21 | inactive: -1.54% |  |
| O=C1CCc2cc(S(=O)(=O)NCc3ccc(F)cc3)cc3c2N1CC3 | inactive: 23% |  |
| Cc1ccc(Cc2nc3ccccc3nc2SCC(=O)N2CCN(c3ccccc3F)CC2)cc1 | inactive: 8.64% |  |
| COc1ccc(C(=O)COC(=O)c2cc(-c3ccccc3)nc3c(C)cccc23)cc1 |  | inactive |
| CCCCOc1ccc(C(=O)NCC2(N3CCN(C)CC3)CCCCC2)cc1 | inactive: 8.57% |  |
| CCS(=O)(=O)N1CCc2cc(C(=O)Nc3ccc(C)c(Cl)c3)ccc21 |  | inactive |
| O=C(Nc1nnc(S(=O)(=O)N2CCOCC2)s1)c1cccc(F)c1 | inactive: 18.5% |  |
| CCc1ccc(-n2c(=O)c3ccc(C(=O)NCCc4ccccc4)cc3n(CC(N)=O)c2=O)cc1 | inactive: -18.2% |  |
| COc1ccc(OC)c(NC(=O)c2cn3c4c(ccc(Cl)c4c2=O)OC(C)C3)c1 (stereo not given) | inactive: 4.5% |  |
| COc1ccc(Cn2cc(C(=O)c3ccc(OC)cc3)c(=O)c3cc4c(cc32)OCCO4)cc1 | inactive: 4.97% |  |
| O=C(Nc1ccc(Cl)cc1)N1CCC(CN2CCCC2)CC1 |  | inactive |
| CC(=O)c1cccc(NC(=O)C(Cc2ccccc2)NS(=O)(=O)c2ccc(Br)s2)c1 (stereo not given) | inactive: -2.41% |  |
| Cc1c2cnn(-c3ccccc3)c(=O)c2c(C)n1CC(=O)NCc1ccccc1Br | inactive: -3.37% |  |
| Cc1cccc(CCNC(=O)Cn2ncc3c(=O)oc4ccccc4c32)c1 |  | inactive |
| Cc1ccc2c(c1)C(c1ccccc1)N(C(=O)c1ccc(OC(C)C)cc1)CC(=O)N2 (stereo not given) | inactive: 1.35% |  |
| CCOC(=O)C1CCN(c2nc(-c3ccc(Br)cc3)nc3ccccc23)CC1 |  | inactive |
| CN(C)c1ccc(CNC(=O)CCCN2C(=O)CCn3nc(-c4cccn4C)cc32)cc1 | inactive: 7.08% |  |
| Cc1ccc(C)c(N2CCN(C(=O)CCCn3ncn4c(cc5occc54)c3=O)CC2)c1 |  | inactive |
